In PubChem BioAssay (NCATS):
This list was built around the results that the source calls inconclusive (neither active nor inactive); the mix of calls is not that of the screen. Calls follow the shape of the dose curve; as a rule, active = well fitted inhibition curve with a large enough effect; inconclusive = small, poorly fitted or top-dose-only effect; inactive = no such curve, though single readings can be large or run the other way. Where the call is inconclusive, the potency comes from a doubtful curve fit.

Test: qHTS to identify inhibitors of the type 1 interferon - major histocompatibility complex class I in skeletal muscle: primary screen against the NCATS Mechanism Interrogation Plate v5.0 (MIPE) Libary (AID 1347411); also: nearly all actives have a fitted effect of over 65% in size
Conditions: iHSKM cells + IFN-b, HiBiT-tagged MHC-I luminescence, 24 h; series mostly up to 45.8 µM
Summary of the method: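 Seed engineered human myoblasts (HLA-B HiBit) in medium without dexamethasone containing 4 ng/ml IFN-beta; after 1 hr add compound titrations (top 46 uM final). Incubate 24 hrs at 37 C, lyse 10 min with HiBiT reagent, read luminescence.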
Potency is read from the fitted curve at half-maximal effect; tags tell the direction and shape of the fitted curve.

Structure (SMILES)	Potency
COC[C@H]1OC(=O)c2coc3c2[C@@]1(C)C1=C(C3=O)C2CCC(=O)[C@@]2(C)C[C@H]1OC(C)=O (stereo partly drawn)	inconclusive: 0.147 µM [inhibitor, full curve]
Fc1ccc(C(OCCN2CCN(CCCc3ccccc3)CC2)c2ccc(F)cc2)cc1	inconclusive: 33 µM [inhibitor, single point]
COc1ccc2c(c[n+](C)c3c4cc5c(cc4ccc23)OCO5)c1OC	inconclusive: 5.23 µM [inhibitor, full curve, poor fit]
